# Assay results: the supplement of paper PMC8728848
# The other results are listed elsewhere or left out.
# B1: Pbx1 (Cryptococcus neoformans) (protein)
# chain: ATTKCLVSGDQDSINNALALGGEGTTVTLCPGSVHRLNSSIIFTAPSQTLTTLGNPKDRNRAMLVVDGEDLACAIRADCKQCSHAMIRSLVIDGNRPQLLRIPKGDALIEVGNAESQTVRDCKLYEPRGWSALHFREGDERQCRFGHIVDNEIGPCGEEWDDEYDSMDETKPLWGNPRADGISLACKDSIVERNVVYDATDGAIVLFGSAGSTVKNNHVYARTRVILGGINLVDYEPWDGDYTNVKVHHNHLYALGRYFKVGIVIGPASWSDDTESVVHSASVTDNEFSGGYWGYGIVVASAKNFEVLRNKVIWDGEQGVARFSGVPGSRCPKAPENGKPTAFLINRGSAKGIFQDDFVNGEVQHIICLNPDQDPPYKPWRFRDSPEAIAAKQAENPTANSAFDSRIAEALVSYQMSLLNSMDAMTQKVEHLTNPIVDDALPFVHEHERAEADKKARQEASRKEKESGNKDVDMLNVKVEELEKSGRRLKKALDGLKSDFEGLSGRLKKSADENKPIIETIFVTSQNLLLGATSQQN
# Key:
# Assay in all cases: glycan array binding signal (z-score within array); higher = stronger binding
# Conditions in all cases: glycan notation: IUPAC condensed, linker removed
# [1] = molecular target: Man(a1-3)[Man(a1-6)]Man(a1-6)[Man(a1-3)]Man(b1-4)GlcNAc(b1-4)GlcNAc
# Procedure, shortened: (§1)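 Columns mapping to the same glycan were averaged after glycan names were converted to IUPAC-condensed notation. The data come from 3228 arrays in the Consortium for Functional Glycomics database, limited to those with an available protein sequence. Binding is reported as a within-array Z-score averaged across arrays of one protein sequence and across linkers.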
# [2] = molecular target: Man(a1-3)[Man(a1-6)]Man(b1-4)GlcNAc(b1-4)GlcNAc
# Procedure, shortened: as §1
# [3] = molecular target: Man(a1-3)[Man(a1-6)]Man(b1-4)GlcNAc(b1-4)[Fuc(a1-6)]GlcNAc
# Procedure, shortened: as §1
# [4] = molecular target: Man(a1-6)Man
# Procedure, shortened: as §1
# [5] = molecular target: Man(b1-4)GlcNAc
# Procedure, shortened: as §1
# [6] = molecular target: MurNAc(b1-4)GlcNAc
# Procedure, shortened: as §1
# [7] = molecular target: Neu5Ac(a2-3)Gal
# Procedure, shortened: as §1
# [8] = molecular target: Neu5Ac(a2-3)Gal(b1-3)GalNAc
# Procedure, shortened: as §1
# [9] = molecular target: Neu5Ac(a2-3)Gal(b1-3)GalNAc(b1-3)Gal(a1-4)Gal(b1-4)Glc
# Procedure, shortened: as §1
# [10] = molecular target: Neu5Ac(a2-3)Gal(b1-3)GalNAc(b1-4)[Neu5Ac(a2-3)]Gal(b1-4)Glc
# Procedure, shortened: as §1
# [11] = molecular target: Neu5Ac(a2-3)Gal(b1-3)GalNAc(b1-4)[Neu5Ac(a2-8)Neu5Ac(a2-3)]Gal(b1-4)Glc
# Procedure, shortened: as §1
# [12] = molecular target: Neu5Ac(a2-3)Gal(b1-3)GalNAc6S
# Procedure, shortened: as §1
# [13] = molecular target: Neu5Ac(a2-3)Gal(b1-3)GlcNAc
# Procedure, shortened: as §1
# [14] = molecular target: Neu5Ac(a2-3)Gal(b1-3)GlcNAc(b1-2)Man
# Procedure, shortened: as §1
# [15] = molecular target: Neu5Ac(a2-3)Gal(b1-3)GlcNAc(b1-2)Man(a1-3)[GlcNAc(b1-4)][Neu5Ac(a2-3)Gal(b1-3)GlcNAc(b1-2)Man(a1-6)]Man(b1-4)GlcNAc(b1-4)GlcNAc
# Procedure, shortened: as §1
# [16] = molecular target: Neu5Ac(a2-3)Gal(b1-3)GlcNAc(b1-2)Man(a1-3)[Neu5Ac(a2-3)Gal(b1-3)GlcNAc(b1-2)Man(a1-6)]Man(b1-4)GlcNAc(b1-4)GlcNAc
# Procedure, shortened: as §1
# [17] = molecular target: Neu5Ac(a2-3)Gal(b1-3)GlcNAc(b1-3)Gal(b1-3)GlcNAc
# Procedure, shortened: as §1
# [18] = molecular target: Neu5Ac(a2-3)Gal(b1-3)GlcNAc(b1-3)Gal(b1-4)GlcNAc
# Procedure, shortened: as §1
# [19] = molecular target: Neu5Ac(a2-3)Gal(b1-3)GlcNAc(b1-3)GalNAc
# Procedure, shortened: as §1
# [20] = molecular target: Neu5Ac(a2-3)Gal(b1-3)GlcNAc(b1-4)Gal(b1-4)Glc
# Procedure, shortened: as §1
# [21] = molecular target: Neu5Ac(a2-3)Gal(b1-3)GlcNAc(b1-6)GalNAc
# Procedure, shortened: as §1
# [22] = molecular target: Neu5Ac(a2-3)Gal(b1-3)GlcNAc6S
# Procedure, shortened: as §1
# [23] = molecular target: Neu5Ac(a2-3)Gal(b1-3)[Fuc(a1-4)]GlcNAc
# Procedure, shortened: as §1
# [24] = molecular target: Neu5Ac(a2-3)Gal(b1-3)[Fuc(a1-4)]GlcNAc(b1-3)Gal(b1-3)[Fuc(a1-4)]GlcNAc
# Procedure, shortened: as §1
# [25] = molecular target: Neu5Ac(a2-3)Gal(b1-3)[Fuc(a1-4)]GlcNAc(b1-3)Gal(b1-4)[Fuc(a1-3)]GlcNAc
# Procedure, shortened: as §1
# [26] = molecular target: Neu5Ac(a2-3)Gal(b1-3)[GlcNAc(b1-6)]GalNAc
# Procedure, shortened: as §1
# [27] = molecular target: Neu5Ac(a2-3)Gal(b1-3)[Neu5Ac(a2-6)]GalNAc
# Procedure, shortened: as §1
# [28] = molecular target: Neu5Ac(a2-3)Gal(b1-3)[Neu5Ac(a2-6)]GlcNAc(b1-3)[Fuc(a1-3)[Gal(b1-4)]GlcNAc(b1-6)]Gal(b1-4)Glc
# Procedure, shortened: as §1
# [29] = molecular target: Neu5Ac(a2-3)Gal(b1-3)]Neu5Ac(a2-3)Gal(b1-4)]GlcNAc
# Procedure, shortened: as §1
# [30] = molecular target: Neu5Ac(a2-3)Gal(b1-4)Glc
# Procedure, shortened: as §1
# [31] = molecular target: Neu5Ac(a2-3)Gal(b1-4)GlcNAc
# Procedure, shortened: as §1
# [32] = molecular target: Neu5Ac(a2-3)Gal(b1-4)GlcNAc(b1-2)Man
# Procedure, shortened: as §1
# [33] = molecular target: Neu5Ac(a2-3)Gal(b1-4)GlcNAc(b1-2)Man(a1-3)[GlcNAc(b1-4)][Neu5Ac(a2-3)Gal(b1-4)GlcNAc(b1-2)Man(a1-6)]Man(b1-4)GlcNAc(b1-4)GlcNAc
# Procedure, shortened: as §1
# [34] = molecular target: Neu5Ac(a2-3)Gal(b1-4)GlcNAc(b1-2)Man(a1-3)[Neu5Ac(a2-3)Gal(b1-4)GlcNAc(b1-2)Man(a1-6)]Man(b1-4)GlcNAc(b1-4)GlcNAc
# Procedure, shortened: as §1
# [35] = molecular target: Neu5Ac(a2-3)Gal(b1-4)GlcNAc(b1-2)Man(a1-3)[Neu5Ac(a2-3)Gal(b1-4)GlcNAc(b1-2)Man(a1-6)]Man(b1-4)GlcNAc(b1-4)[Fuc(a1-6)]GlcNAc
# Procedure, shortened: as §1
# [36] = molecular target: Neu5Ac(a2-3)Gal(b1-4)GlcNAc(b1-2)Man(a1-3)[Neu5Ac(a2-6)Gal(b1-4)GlcNAc(b1-2)Man(a1-6)]Man(b1-4)GlcNAc(b1-4)GlcNAc
# Procedure, shortened: as §1
# [37] = molecular target: Neu5Ac(a2-3)Gal(b1-4)GlcNAc(b1-2)[Neu5Ac(a2-3)Gal(b1-4)GlcNAc(b1-4)]Man(a1-3)[GlcNAc(b1-4)][Neu5Ac(a2-3)Gal(b1-4)GlcNAc(b1-2)[Neu5Ac(a2-3)Gal(b1-4)GlcNAc(b1-6)]Man(a1-6)]Man(b1-4)GlcNAc(b1-4)GlcNAc
# Procedure, shortened: as §1
# [38] = molecular target: Neu5Ac(a2-3)Gal(b1-4)GlcNAc(b1-2)[Neu5Ac(a2-3)Gal(b1-4)GlcNAc(b1-4)]Man(a1-3)[GlcNAc(b1-4)][Neu5Ac(a2-3)Gal(b1-4)GlcNAc(b1-4)Man(a1-6)]Man(b1-4)GlcNAc(b1-4)GlcNAc
# Procedure, shortened: as §1
binder,measurement,setting,value
B1,glycan array binding signal (z-score),[1],-1.04
same,glycan array binding signal (z-score),[2],-0.173
same,glycan array binding signal (z-score),[3],-0.297
same,glycan array binding signal (z-score),[4],-0.843
same,glycan array binding signal (z-score),[5],0.583
same,glycan array binding signal (z-score),[6],5.14
same,glycan array binding signal (z-score),[7],-0.181
same,glycan array binding signal (z-score),[8],-0.093
same,glycan array binding signal (z-score),[9],-0.899
same,glycan array binding signal (z-score),[10],-0.526
same,glycan array binding signal (z-score),[11],-0.5
same,glycan array binding signal (z-score),[12],-0.58
same,glycan array binding signal (z-score),[13],-0.686
same,glycan array binding signal (z-score),[14],0.324
same,glycan array binding signal (z-score),[15],-0.214
same,glycan array binding signal (z-score),[16],0.345
same,glycan array binding signal (z-score),[17],0.288
same,glycan array binding signal (z-score),[18],-0.214
same,glycan array binding signal (z-score),[19],-0.028
same,glycan array binding signal (z-score),[20],-0.697
same,glycan array binding signal (z-score),[21],-0.879
same,glycan array binding signal (z-score),[22],-0.618
same,glycan array binding signal (z-score),[23],-0.351
same,glycan array binding signal (z-score),[24],0.727
same,glycan array binding signal (z-score),[25],-0.226
same,glycan array binding signal (z-score),[26],-0.914
same,glycan array binding signal (z-score),[27],-0.413
same,glycan array binding signal (z-score),[28],-0.698
same,glycan array binding signal (z-score),[29],-1.05
same,glycan array binding signal (z-score),[30],-0.719
same,glycan array binding signal (z-score),[31],-0.401
same,glycan array binding signal (z-score),[32],1.99
same,glycan array binding signal (z-score),[33],-0.463
same,glycan array binding signal (z-score),[34],0.152
same,glycan array binding signal (z-score),[35],-0.268
same,glycan array binding signal (z-score),[36],-0.27
same,glycan array binding signal (z-score),[37],0.361
same,glycan array binding signal (z-score),[38],-0.306
